Variants at the background level are over-represented here.
B1: TPR 5TU (parent)
chain: GGAUCUUCUCGAUCUAACAAAAAAGACAAAUCUGCCACAAAGCUUGAGAGCAUCUUCGGAUGCAGAGGCGGCAGCCUUCGGUGGCGCGAUAGCGCCAACGUUCUCAACUAUGACACGCAAAACGCGUGCUCCGUUGAAUGGAGUUUAUCAUG

Variants of: B1
Assay: polymerase ribozyme fitness, log enrichment relative to wild type (log ratio); higher = more active; in vitro selection for triplet polymerase activity
Procedure, shortened: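 Mutant libraries were PCR-built and transcribed for each subunit of a heterodimeric triplet polymerase ribozyme and selected for one round in triplicate at −7 °C, frozen, before gel excision of extended constructs and streptavidin-bead capture. Input and output libraries were Illumina-sequenced, keeping genotypes with ≥10 input reads and ≥1 read per output. Fitness is a logarithmic ratio of genotype to wild-type enrichment, in base 2, using inverse-variance-weighted replicate averages.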

Row | Variant | polymerase ribozyme fitness (log ratio)
1 | GGAUCUUCUCGAUCUAACAAAAAAGACAAAUCUGCCACAAAGCUUGAGAGCAUCUUCGGAUGCAGAGGCGGCAGCCUUCGGUGGCGCGAUAGCCCCAACGUUCUCAACUAUGGCACGCAAAACGCGUGCUCCGUUGAAUGGAGUUUAUCAUG [G94C A113G] | -2.8
2 | GGAUCUUCUCGAUCUAACAAAAAAGACAAAUCUGCCACAAAGCUUGAGAGCAUCUUCGGAUGCAGAGGCGGCAGCCUUCGGUGGCGCGAUAGCACCAACGUUCUCGACUAUGACACGCAAAACGCGUGCUGCGUUGAAUGGAGUUUAUCAUG [G94A A106G C131G] | ≤ -4.2
3 | GGAUCUUCUCGAUCUAACAAAAAAGACAAAUCUGCCACAAAGCUUGAGAGCAUCUUCGGAUGCAGAGGCGGCAGCCUUCGGUGGCGCGAUAGCGUCAACGUUCUCAACUAUGACACGCAAAACGCGUGCUCCGUUGAAUGAAGUUUAUCAUG [C95U G141A] | 0.432
4 | GGAUCUUCUCGAUCUAACAAAAAAGACAAAUCUGCCACAAAGCUUGAGAGCAUCUUCGGAUGCAGAGGCGGCAGCCUUCGGUGGCGCGAUAGCACCAACGUUCUUAACUAUGACAUGCAAAACGGGUGCUCCGUUGAAUGGAGUUUAUCAUG [G94A C105U C116U C125G] | -0.0334
5 | GGAUCUUCUCGAUCUAACAAAAAAGACAAAUCUGCCACAAAGCUUGAGAGCAUCUUCGGAUGCAGAGGCGGCAGCCUUCGGUGGCGCGAUAGCUCCAACGUUCUCAACUAUGACACGCAAAACGCGUGCUCCGUUGAAUGGAUUUUAUCAUG [G94U G143U] | -3.64
6 | GGAUCUUCUCGAUCUAACAAAAAAGACAAAUCUGCCACAAAGCUUGAGAGCAUCUUCGGAUGCAGAGGCGGCAGCCUUCGGUGGCGCGAUAGCACGAACGUUCUCAACUAUGACACGCAAAACGCGUGCUCCGUUGAAUGGAGUUUAUCAUG [G94A C96G] | -2.1
7 | GGAUCUUCUCGAUCUAACAAAAAAGACAAAUCUGCCACAAAGCUUGAGAGCAUCUUCGGAUGCAGAGGCGGCAGCCUUCGGUGGCGCGAUAGCCCCAACGUUCUCAUCUAUGACACGCAAAACGCGUGCUCCGUUGAAUGGAGUUUAUCAUG [G94C A107U] | ≤ -4.2
8 | GGAUCUUCUCGAUCUAACAAAAAAGACAAAUCUGCCACAAAGCUUGAGAGCAUCUUCGGAUGCAGAGGCGGCAGCCUUCGGUGGCGCGAUAGCCCCAACGUUCUCAGCUAUGACACGCAAAACGCGUGCUCCGUUGAAUGGAGUUUAUCAUG [G94C A107G] | -3.89
9 | GGAUCUUCUCGAUCUAACAAAAAAGACAAAUCUGCCACAAAGCUUGAGAGCAUCUUCGGAUGCAGAGGCGGCAGCCUUCGGUGGCGCGAUAGCGGUAACGUUCUCAACUAUGACACGCAAAACGCGUGCUCCGUUGAAUGGAGUUUAUCAGG [C95G C96U U151G] | ≤ -4.2
10 | GGAUCUUCUCGAUCUAACAAAAAAGACAAAUCUGCCACAAAGCUUGAGAGCAUCUUCGGAUGCAGAGGCGGCAGCCUUCGGUGGCGCGAUAGCCCCAACGUUCUCAACUAUGACACGCAAACCGCGUGCUCCGUUGUAUGGAGUUUAUCAUG [G94C A122C A137U] | -4.05
11 | GGAUCUUCUCGAUCUAACAAAAAAGACAAAUCUGCCACAAAGCUUGAGAGCAUCUUCGGAUGCAGAGGCGGCAGCCUUCGGUGGCGCGAUAGCUCCAACGUUCUCAACUAUGACACGCAAAACGCGUGCUCCGUUGAAUGGUGUUUAUCAUG [G94U A142U] | -1.73
12 | GGAUCUUCUCGAUCUAACAAAAAAGACAAAUCUGCCACAAAGCUUGAGAGCAUCUUCGGAUGCAGAGGCGGCAGCCUUCGGUGGCGCGAUAGCUCCAACGUUCUCAACUAUGAGAUGCAAAACGCGUGCUCCGUUGAAUGGAGUUUAUCAUG [G94U C114G C116U] | ≤ -4.2
13 | GGAUCUUCUCGAUCUAACAAAAAAGACAAAUCUGCCACAAAGCUUGAGAGCAUCUUCGGAUGCAGAGGCGGCAGCCUUCGGUGGCGCGAUAGCACCAACGUUCUCAACUAUGACACGCAAAACGCGUGCUCCGUUGAAUGGAGUUUAUCAUC [G94A G152C] | -3.08
14 | GGAUCUUCUCGAUCUAACAAAAAAGACAAAUCUGCCACAAAGCUUGAGAGCAUCUUCGGAUGCAGAGGCGGCAGCCUUCGGUGGCGCGAUAGCGUCAACGUGCUCAACUAUGACACGCAAAACGCGUGCUCCGUUGAAUGGAGUUUAUCAUG [C95U U102G] | -1.19
15 | GGAUCUUCUCGAUCUAACAAAAAAGACAAAUCUGCCACAAAGCUUGAGAGCAUCUUCGGAUGCAGAGGCGGCAGCCUUCGGUGGCGCGAUAGCACCAACAUUCUCAACUAUGACACGCAAAACGCGUGCUCCGUUGAAUGGAUUUUAUCAUG [G94A G100A G143U] | ≤ -4.2
16 | GGAUCUUCUCGAUCUAACAAAAAAGACAAAUCUGCCACAAAGCUUGAGAGCAUCUUCGGAUGCAGAGGCGGCAGCCUUCGGUGGCGCGAUAGCGUCAACUUUCGCAACUAUGAUACGCAAAACGCGUGCUCCGUUGAAUGCAGUUUAUCCUG [C95U G100U U104G C114U G141C A150C] | ≤ -4.2
17 | GGAUCUUCUCGAUCUAACAAAAAAGACAAAUCUGCCACAAAGCUUGAGAGCAUCUUCGGAUGCAGAGGCGGCAGCCUUCGGUGGCGCGAUAGCUCCAACGUUCUCAACUAUGACACGCAAAACGCGUGCUCCGUUGAAUGGCGUUUAUCCUG [G94U A142C A150C] | ≤ -4.2
18 | GGAUCUUCUCGAUCUAACAAAAAAGACAAAUCUGCCACAAAGCUUGAGAGCAUCUUCGGAUGCAGAGGCGGCAGCCUUCGGUGGCGCGAUAGCACCAACGUUCUCAACUAUGACACUCAAAACGCGUGCUCCGUUGAAUGGAGUUUAUCAUG [G94A G117U] | -0.469
19 | GGAUCUUCUCGAUCUAACAAAAAAGACAAAUCUGCCACAAAGCUUGAGAGCAUCUUCGGAUGCAGAGGCGGCAGCCUUCGGUGGCGCGAUAGCGAAAACGUUCUCAACUAUGACAUGCAAAACGCGUGCUCCGUUGAAUGGAGUUUAUCAUG [C95A C96A C116U] | -0.649
